Common to all, as to assay: protein-binding microarray (PBM)
What all share (conditions): PBM: ~300 nM protein, 6 mM HEPES pH 7.8, 80 mM KCl, 0.5 mM EDTA, 0.5 mM EGTA, 6% glycerol, 35 ng/ul poly-dIdC, 1% milk, 1 h, room temperature; Ap Aiptasia and Nv Nematostella (sea anemones) / Co Capsaspora / Aq Amphimedon (sponge) / Dm Drosophila / Hu human; RHD is the Rel homology domain; high values mean tight binding; most listed sequences are background and not binding sites; double strand, one strand shown

The target of one assay is T1, GST-Ap-NF-kB RHD (UniProt A0A913YAJ5).
T1 sequence: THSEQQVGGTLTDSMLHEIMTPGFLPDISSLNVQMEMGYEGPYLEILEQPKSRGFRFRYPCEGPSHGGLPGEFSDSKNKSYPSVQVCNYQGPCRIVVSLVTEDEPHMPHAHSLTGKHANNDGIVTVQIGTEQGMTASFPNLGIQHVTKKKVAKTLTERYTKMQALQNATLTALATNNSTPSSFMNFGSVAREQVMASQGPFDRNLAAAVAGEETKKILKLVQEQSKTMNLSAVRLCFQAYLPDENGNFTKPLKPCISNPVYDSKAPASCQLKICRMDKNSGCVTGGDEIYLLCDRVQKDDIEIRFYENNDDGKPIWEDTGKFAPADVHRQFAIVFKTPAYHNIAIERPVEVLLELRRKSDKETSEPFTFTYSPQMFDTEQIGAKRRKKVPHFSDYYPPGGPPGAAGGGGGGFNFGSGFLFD

The target of assay [1] is T2, GST-Nv-NF-kB (Cys allele) (UniProt E5G601).
T2 sequence: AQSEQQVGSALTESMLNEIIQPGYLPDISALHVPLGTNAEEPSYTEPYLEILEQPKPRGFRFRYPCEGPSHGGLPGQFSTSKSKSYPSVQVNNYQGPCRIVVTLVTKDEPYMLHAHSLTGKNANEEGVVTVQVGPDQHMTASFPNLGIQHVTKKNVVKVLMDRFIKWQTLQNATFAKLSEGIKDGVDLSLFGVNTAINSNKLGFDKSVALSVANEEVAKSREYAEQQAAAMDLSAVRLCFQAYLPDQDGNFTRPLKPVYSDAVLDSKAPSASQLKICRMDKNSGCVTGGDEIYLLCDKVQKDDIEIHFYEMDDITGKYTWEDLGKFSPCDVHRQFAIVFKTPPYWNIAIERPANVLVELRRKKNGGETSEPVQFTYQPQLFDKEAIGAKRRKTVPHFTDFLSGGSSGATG

The target of a further assay is T3, GST-Co-NF-kB (UniProt F1ARL5).
T3 sequence: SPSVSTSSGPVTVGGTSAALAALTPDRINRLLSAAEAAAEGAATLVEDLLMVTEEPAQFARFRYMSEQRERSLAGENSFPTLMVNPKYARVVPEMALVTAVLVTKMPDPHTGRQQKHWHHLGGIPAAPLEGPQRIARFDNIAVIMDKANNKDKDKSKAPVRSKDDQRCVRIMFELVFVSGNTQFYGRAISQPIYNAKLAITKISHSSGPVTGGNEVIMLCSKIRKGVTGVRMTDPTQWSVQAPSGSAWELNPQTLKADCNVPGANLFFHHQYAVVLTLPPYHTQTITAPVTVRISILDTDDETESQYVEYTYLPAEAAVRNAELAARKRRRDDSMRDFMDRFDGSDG

In the next assay the target is T4, GST-Dm-Relish (UniProt Q94527).
T4 sequence: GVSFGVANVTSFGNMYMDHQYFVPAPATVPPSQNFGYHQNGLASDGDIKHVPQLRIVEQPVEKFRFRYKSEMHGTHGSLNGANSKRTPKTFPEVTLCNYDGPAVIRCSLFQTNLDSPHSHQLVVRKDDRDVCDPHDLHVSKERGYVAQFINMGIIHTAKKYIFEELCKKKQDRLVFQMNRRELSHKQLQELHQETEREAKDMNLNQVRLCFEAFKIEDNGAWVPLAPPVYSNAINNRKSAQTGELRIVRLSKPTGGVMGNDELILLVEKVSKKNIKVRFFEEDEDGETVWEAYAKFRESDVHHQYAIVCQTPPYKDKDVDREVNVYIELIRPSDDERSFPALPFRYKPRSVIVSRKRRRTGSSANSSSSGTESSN

The target in a further assay is T5, GST-Aq-NF-kB (UniProt A9Y5G7).
T5 sequence: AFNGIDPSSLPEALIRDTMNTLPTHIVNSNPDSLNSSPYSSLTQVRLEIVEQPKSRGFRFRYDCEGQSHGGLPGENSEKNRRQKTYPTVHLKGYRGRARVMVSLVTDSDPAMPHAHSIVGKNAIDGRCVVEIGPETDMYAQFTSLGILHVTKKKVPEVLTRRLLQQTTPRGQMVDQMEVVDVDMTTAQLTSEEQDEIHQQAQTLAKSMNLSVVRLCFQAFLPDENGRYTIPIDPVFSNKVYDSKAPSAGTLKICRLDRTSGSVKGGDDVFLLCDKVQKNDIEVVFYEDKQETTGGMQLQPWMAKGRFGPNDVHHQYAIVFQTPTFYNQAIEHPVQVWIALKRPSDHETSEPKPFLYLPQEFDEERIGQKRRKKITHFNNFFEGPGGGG

The entries are a selection whose mix differs from that of the whole data set. The list includes weakly bound sequences.

Consider “CCGATTAACATCAGAAGTTCATGTGATGTTAATCGGGTCTTGATTCGCTTGACGCTGCTG”, for which the binding signal is -0.0773 z-score in the assay with GST-Ap-NF-kB RHD; -0.996 z-score in assay [1]; 0.119 z-score in the assay with GST-Co-NF-kB; -0.21 z-score in the assay with GST-Dm-Relish; -0.363 z-score in the assay with GST-Aq-NF-kB.
Turning to “CCGATTAACATCAAAATGCATGATGATGTTAATCGGGTCTTGATTCGCTTGACGCTGCTG”, the binding signal with GST-Ap-NF-kB RHD is -0.274 z-score; in assay [1] it was -0.0857 z-score; with GST-Co-NF-kB it was -0.339 z-score; with GST-Dm-Relish, -0.595 z-score; with GST-Aq-NF-kB, -0.384 z-score.
The like results for “CCGATTAACATCATTACAACGCTTGATGTTAATCGGGTCTTGATTCGCTTGACGCTGCTG” were, in that order, -0.983 z-score, -0.0474 z-score, -0.756 z-score, 0.178 z-score and -0.353 z-score.
The like results for “CCGATTAACATCAGTAGGTGAAGTGATGTTAATCGGGTCTTGATTCGCTTGACGCTGCTG” were, in that order, 0.456 z-score, 0.452 z-score, 1.02 z-score, 0.093 z-score and 0.0881 z-score.
The like results for “CCGATTAACATCAATTCAGAAAGTGATGTTAATCGGGTCTTGATTCGCTTGACGCTGCTG” were, in that order, -0.272 z-score, -0.0297 z-score, -0.261 z-score, -0.147 z-score and -0.53 z-score.
Consider “CCGATTAACATCACGGCATGTGTTGATGTTAATCGGGTCTTGATTCGCTTGACGCTGCTG”, for which the binding signal with GST-Ap-NF-kB RHD is -0.428 z-score; in assay [1], -0.267 z-score; in the assay with GST-Co-NF-kB it was -0.0449 z-score; with GST-Dm-Relish, 0.0402 z-score; in the assay with GST-Aq-NF-kB, -0.37 z-score.
The like results for “CCGATTAACATCAGAGAGTGTATTGATGTTAATCGGGTCTTGATTCGCTTGACGCTGCTG” were, in that order, -0.158 z-score, 0.633 z-score, 0.639 z-score, -0.489 z-score and -0.373 z-score.
Turning to “CCGATTAACATCAGATCACATGATGATGTTAATCGGGTCTTGATTCGCTTGACGCTGCTG”, the binding signal was -0.649 z-score with GST-Ap-NF-kB RHD; -0.256 z-score in assay [1]; -0.129 z-score in the assay with GST-Co-NF-kB; -0.762 z-score in the assay with GST-Dm-Relish; -0.446 z-score with GST-Aq-NF-kB.
The matching figures for “CCGATTAACATCAAAATTCCTGATGATGTTAATCGGGTCTTGATTCGCTTGACGCTGCTG”: 0.0361 z-score, -0.16 z-score, 0.485 z-score, 0.546 z-score and 0.666 z-score.
Regarding “CCGATTAACATCACGGGCATTCCTGATGTTAATCGGGTCTTGATTCGCTTGACGCTGCTG”, the binding signal is 0.931 z-score with GST-Ap-NF-kB RHD; 0.928 z-score in assay [1]; 0.157 z-score with GST-Co-NF-kB; 2.37 z-score with GST-Dm-Relish; 3.21 z-score with GST-Aq-NF-kB.
Consider “CCGATTAACATCATTAGATGGCTTGATGTTAATCGGGTCTTGATTCGCTTGACGCTGCTG”, for which the binding signal was -0.235 z-score in the assay with GST-Ap-NF-kB RHD; -0.676 z-score in assay [1]; -0.178 z-score in the assay with GST-Co-NF-kB; -1.11 z-score in the assay with GST-Dm-Relish; -0.357 z-score in the assay with GST-Aq-NF-kB.
The matching figures for “CCGATTAACATCAACTCAAGCCCTGATGTTAATCGGGTCTTGATTCGCTTGACGCTGCTG”: -0.063 z-score, -0.991 z-score, -0.549 z-score, -0.7 z-score and -0.264 z-score.
The matching figures for “CCGATTAACATCATTGATGGAACTGATGTTAATCGGGTCTTGATTCGCTTGACGCTGCTG”: -0.0588 z-score, -0.299 z-score, -0.945 z-score, -0.65 z-score and -0.0548 z-score.
Take “CCGATTAACATCATTCGTACGCATGATGTTAATCGGGTCTTGATTCGCTTGACGCTGCTG”: the binding signal was -1.17 z-score with GST-Ap-NF-kB RHD; -0.439 z-score in assay [1]; -1.75 z-score with GST-Co-NF-kB; -0.606 z-score with GST-Dm-Relish; -0.671 z-score with GST-Aq-NF-kB.
The matching figures for “CCGATTAACATCAAATAGATGGCTGATGTTAATCGGGTCTTGATTCGCTTGACGCTGCTG”: -0.231 z-score, -0.823 z-score, -0.223 z-score, -0.561 z-score and -0.349 z-score.
For “CCGATTAACATCATGGTCTCATGTGATGTTAATCGGGTCTTGATTCGCTTGACGCTGCTG”, the binding signal with GST-Ap-NF-kB RHD is -0.574 z-score; in assay [1], 0.0385 z-score; in the assay with GST-Co-NF-kB it was -0.428 z-score; with GST-Dm-Relish, 0.0801 z-score; with GST-Aq-NF-kB, -0.379 z-score.
Turning to “CCGATTAACATCAACAAGCCCACTGATGTTAATCGGGTCTTGATTCGCTTGACGCTGCTG”, the binding signal with GST-Ap-NF-kB RHD was 0.00956 z-score; in assay [1], 0.189 z-score; with GST-Co-NF-kB, 0.0983 z-score; with GST-Dm-Relish, 0.223 z-score; with GST-Aq-NF-kB, -0.0918 z-score.
With “CCGATTAACATCAAGCCTCCATATGATGTTAATCGGGTCTTGATTCGCTTGACGCTGCTG”, the binding signal with GST-Ap-NF-kB RHD is -0.679 z-score; in assay [1] it was -0.0119 z-score; in the assay with GST-Co-NF-kB, -0.289 z-score; with GST-Dm-Relish, -0.369 z-score; with GST-Aq-NF-kB it was -0.273 z-score.

Values taken from publication PMC5700166.
